Patent US20030095977A1 (published 2003)

Target: T1, CD20 (human, UniProt P11836 1-297)
T1 construct: whole, on cells; also called CD20 on Ramos cells
T1 sequence (looked up): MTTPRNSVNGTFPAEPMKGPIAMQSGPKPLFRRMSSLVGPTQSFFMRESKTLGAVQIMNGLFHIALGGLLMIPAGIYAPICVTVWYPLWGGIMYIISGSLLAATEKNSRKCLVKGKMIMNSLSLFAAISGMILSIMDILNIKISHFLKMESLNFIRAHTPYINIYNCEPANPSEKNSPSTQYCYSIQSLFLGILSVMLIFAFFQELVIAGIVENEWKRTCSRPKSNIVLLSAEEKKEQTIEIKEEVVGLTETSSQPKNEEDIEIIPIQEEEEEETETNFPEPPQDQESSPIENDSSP
Assay: saturation binding of radiolabeled fusion protein to Ramos cells (10^7 cells), nonlinear regression; avidity

B1: B9E9 scFvSA (VH-VL 25-mer) (scFv)
chain: QVQLVQSGAELVKPGASVKMSCKASGYTFTSYNMHWVKQTPGQGLEWIGAIYPGNGDTSYNQKFKGKATLTADKSSSTAYMQLSSLTSEDSAVYYCARAQLRPNYWYFDVWGAGTTVTVSKISGGGGSGGGGSGGGGSGGGGSGGGGSSDIVLSQSPAILSASPGEKVTMTCRASSSVSYMHWYQQKPGSSPKPWIYATSNLASGVPARFSGSGSGTSYSLTISRVEAEDAATYYCQQWISNPPTFGAGTKLELKSSGSGSA[not shown - about 150 residues]
notes: monomer mass 43,401; It was radiolabeled in the avidity assay; also called B9E9 scFvSA (25-mer); B9E9 fusion protein
Ka: 8e+07 M⁻¹ | Kd: 12.4 nM
